Consider 95 compounds from PubChem BioAssay AID1508642 (National Center for Advancing Translational Sciences (NCATS), 2021).

In all, about 43,000 compounds went through this assay and about 200 (0.47%) were called active. About 12% were inconclusive and are not listed. The call rests on the fitted dose curve; in most records, active means well fitted cell-killing curve with a large enough effect; inconclusive means small, poorly fitted or top-dose-only effect, or effect the other way; inactive means flat fitted curve, though single readings scatter. Some of the results follow.
On the % scale 0 is the no-effect control and ±100 the full control effect.

The experiment in a line: Cell viability qHTS assay in S16 Pmp22-F2sN cells. Further: nearly all actives have a fitted effect of over 65% in size. The following applies: S16 Pmp22-F2sN Schwann cells viability, CellTiter-Glo, 24 h; series mostly up to 57.5 µM; activity change, negative = cytotoxicity: at the top concentration. An outline of the steps: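 Used to flag compounds lowering reporter output through toxicity, this quantitative HTS measures ATP-based CellTiter-Glo luminescence in S16 Pmp22-F2sN Schwann cells after 24 h compound exposure at 37C.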
Consider `CCOC(=O)c1c(C)oc2nc(C)nc(Nc3cc(C)ccc3OC)c12`, for which the “activity change, negative = cytotoxicity” value is inactive: 11.5%. The same measure for `CCOc1ccccc1NC(=O)C1CCCN(S(=O)(=O)c2cn(C)cn2)C1` (stereo not given): inactive: 5.13%. For `CCOc1ccc(NC(=O)Cn2c(=O)cc(C)c3c(C)nn(-c4ccc(CC)cc4)c32)cc1` the value was inactive: 22.4%. Regarding `COc1ccc(C(=O)Nc2ccccc2C(=O)OCc2cc(=O)n3nc(C4CC4)sc3n2)cc1`, the “activity change, negative = cytotoxicity” value is inactive: -4.51%.

In the case of `O=C(C1CCCCC1)N(Cc1cccnc1)c1nc2ccc(F)cc2s1`, the “activity change, negative = cytotoxicity” value is inactive: -24.3%. Turning to `CCc1nnc(NC(=O)CSc2nc3c([nH]c4ccccc43)c(=O)n2-c2ccc(OC)cc2)s1`, the “activity change, negative = cytotoxicity” value is inactive: -0.973%. For `Cc1ccc(N2CC(C(=O)NCc3nnnn3-c3ccc(C)c(C)c3)CC2=O)cc1` (stereo not given) the value was inactive: 1.23%. For `COC(=O)c1ccc(Cn2c(SCC(=O)Nc3ccc(F)cc3)nc3ccccc32)cc1` the value was inactive: 3.32%; for `CCOc1ccc(-c2cc(NC(=O)Nc3ccccc3C(F)(F)F)c(C(=O)OC)s2)cc1`, inactive: -0.24%. For `CCCCOc1ccc(C(=O)Nc2ccc3c(c2)CCCN3S(=O)(=O)c2ccc(C)cc2)cc1` the value was inactive: 0.17%; for `CCCCN(CC)Cc1ccc(CNS(=O)(=O)c2cc3c(cc2Cl)NC(=O)CO3)o1`, inactive: 10.8%.

Turning to `CCOc1ccc(NC(=O)Cn2c(=O)n(Cc3ccc(C(=O)NCc4ccc5c(c4)OCO5)cc3)c(=O)c3ccccc32)cc1`, the “activity change, negative = cytotoxicity” value was inactive: -28.7%. For `COc1ccc(OC)c(CCNC(=O)CN2C(=O)COc3ccc(S(=O)(=O)N4CCCCCC4)cc32)c1` the value was inactive: 11.7%; for `CCc1ccc(CNC(=O)c2ccc3c(c2)nc2n3CCCCC2)cc1`, inactive: -0.144%. The same measure for `Cc1ccc(C)c(Cn2cnc3ccccc3c2=O)c1`: inactive: 8.8%. Consider `COc1cccc(CNC(=O)CSc2n[nH]c(-c3ccccc3Cl)n2)c1`, for which the “activity change, negative = cytotoxicity” value is inactive: -1.2%. For `COc1cccc(CNC(=O)CCNS(=O)(=O)c2ccc3c(c2)CCCC(=O)N3)c1` the value was inactive: 21%; for `O=C(NCc1ccccn1)c1nn(-c2ccccc2F)nc1CO`, inactive: -5.98%; for `COc1cc(CN2CCN(S(=O)(=O)c3ccc(F)cc3)CC2)cc(OC)c1OC`, inactive: -3.31%. For `Fc1ccccc1C1=NC(c2ccc(C(F)(F)F)cc2)=Nc2ccccc2N1` the value was inactive: 13.2%. The same measure for `COC(=O)c1cc(OC)c(OC)cc1NC(=O)c1ccc2c(c1)CCN2S(=O)(=O)c1ccccc1`: inactive: 0.242%; for `Fc1ccc(-n2ncc3c(N4CCN(Cc5ccccc5)CC4)ncnc32)cc1`: inactive: -1.32%. Take `Cc1ccc(CNC(=O)Cn2ccn(-c3cc(C)cc(C)c3)c(=O)c2=O)cc1`: the “activity change, negative = cytotoxicity” value is inactive: 4.8%. For `O=C(c1ccc(F)cc1)n1nc(-c2ccc(Cl)cc2)nc1NCc1ccco1` the value was inactive: -17.7%; for `COc1ccccc1NC(=O)Cn1nc(C)n2cccc2c1=O`, inactive: -2.93%. For `COc1ccc(OC)c(NC(=O)c2cc3cc4ccc(C)cc4nc3s2)c1` the value was inactive: 6.49%; for `CC1=C(C(=O)Nc2ccccc2)C(c2cccs2)n2nc(SCc3ccccc3)nc2N1` (stereo not given), inactive: 6.25%; for `CCc1cccc(NC(=O)CN2c3ccccc3S(=O)(=O)c3ccccc32)c1`, inactive: 2.44%. The same measure for `CC(C)(C)OC(=O)N1CCC(c2c(C(=O)N3CCN(c4ncccn4)CC3)cnn2-c2cccc(F)c2)CC1`: inactive: -7.63%; for `COc1ccc(NC(=O)CCc2nnc3n(CC(C)C)c(=O)c4ccccc4n23)cc1OC`: inactive: 12.6%. As to `CN(C)CCNC(=O)Cn1nc(N2CCN(c3ccccc3)CC2)ccc1=O`, the “activity change, negative = cytotoxicity” value was inactive: -1.3%. The same measure for `COc1cc2c(cc1OC)n(CC(=O)c1ccc(C)cc1)c(=O)n1nc(CCn3nc(C)cc3C)nc21`: inactive: 1.97%; for `COc1ccc(-c2cc(C(=O)Oc3cccc(C)c3C)c3ccccc3n2)cc1`: inactive: 2.93%; for `Cc1ccc(O)c(NC(=O)COCc2cc(-c3ccco3)on2)c1`: inactive: -3.69%. The same measure for `CC(=O)Nc1nonc1-c1nnc(SCc2ccccc2Cl)n1C`: inactive: -0.0983%. The same measure for `Cc1cc(C)c2c(=O)c3c(oc2c1)C(=O)N(Cc1ccco1)C3c1ccccc1F` (stereo not given): inactive: -4.86%. As for `Cn1cc(-c2cc3n(n2)CCC(=O)N3CCCC(=O)Nc2ccccc2F)c2ccccc21`, the “activity change, negative = cytotoxicity” value was inactive: 5.37%.

`CCc1ccc(NC(=O)c2ccc(F)c(S(=O)(=O)N3CCN(c4cc(C)ccc4C)CC3)c2)cc1`: the “activity change, negative = cytotoxicity” value was inactive: -8.39%.

For the compound `Cc1noc(-c2ccc(-c3noc(-c4ccc(C(F)(F)F)cc4)n3)cc2)n1`, the “activity change, negative = cytotoxicity” value is inactive: 1.31%. Take `COc1ccc(Nc2nc(-c3ccccc3F)nc3ccccc23)cc1OC`: the “activity change, negative = cytotoxicity” value was inactive: -5.83%.

With `CCc1cccc(NC(=O)C(CC)n2nc(C)c3sc4ccccc4c3c2=O)c1` (stereo not given), the “activity change, negative = cytotoxicity” value is inactive: 2.64%. In the case of `Cc1c(C(=O)NCc2ccccc2Br)oc2ccc3c(c12)C(=O)CC(C)(C)O3`, the “activity change, negative = cytotoxicity” value is inactive: -1.66%. For `COc1ccc(NC(=O)c2sc3nc4c(cc3c2N)CN(Cc2ccccc2)CC4)cc1OC` the value was inactive: -3.51%; for `O=C(NC1CC(=O)N(c2ccccc2)C1)c1ccc(S(=O)(=O)N2CCCC2)cc1` (stereo not given), inactive: -0.854%. `Nc1ncc(S(=O)(=O)NCc2ccc(F)cc2)cn1`: the “activity change, negative = cytotoxicity” value is inactive: 1.45%. For `CC(CCCc1ccccc1)NC(=O)c1nn(-c2ccc(Cl)cc2)nc1CO` (stereo not given) the value was inactive: -1.29%. The same measure for `CC(C)c1cccc(C(C)C)c1NS(=O)(=O)c1cccs1`: inactive: -2.14%. The same measure for `Cc1ccc2[nH]c3c(=O)n(CC(=O)N4CCCC(C)C4)ncc3c2c1` (stereo not given): inactive: 16%; for `CC(=O)c1cccc(Nc2nc(-c3ccccc3Cl)nc3ccccc23)c1`: inactive: -1.56%.

Consider `Cc1ccccc1Cn1c2ccccc2c2cnn(CC(=O)NCCc3ccc(Cl)cc3)c(=O)c21`, for which the “activity change, negative = cytotoxicity” value was inactive: 16.6%. For `CCOc1ccccc1NC(=O)c1cc2c(=O)[nH]c3ccccc3c2s1`, the “activity change, negative = cytotoxicity” value was inactive: 1.82%. In the case of `Cc1cccc2sc(N(Cc3cccnc3)C(=O)COc3ccccc3)nc12`, the “activity change, negative = cytotoxicity” value is inactive: -13.8%.

As for `COc1ccc(-c2nc3ccccc3s2)cc1NC(C)=O`, the “activity change, negative = cytotoxicity” value was inactive: -0.0075%. The same measure for `CCOC(=O)c1c(C)[nH]c(C)c1S(=O)(=O)NCC(=O)N1CCN(c2ccccc2F)CC1`: inactive: -5.47%.

On to `COc1ccc(CNC(=O)C2CCN(S(=O)(=O)c3ccc4c(ccn4C)c3)CC2)cc1`, for which the “activity change, negative = cytotoxicity” value is inactive: 0.141%. Regarding `Cc1cc(C)c2c(-n3cccc3)c(C(=O)NCC(C)c3ccccc3)sc2n1` (stereo not given), the “activity change, negative = cytotoxicity” value is inactive: 8.61%.

For the compound `COc1ccc(C(=O)CCC(=O)Nc2cc(C)ccc2C)cc1`, the “activity change, negative = cytotoxicity” value is inactive: 5.44%. With `COc1ccc(CN2CCN(S(=O)(=O)c3ccc(NC(C)=O)cc3)CC2)c(OC)c1OC`, the “activity change, negative = cytotoxicity” value was inactive: -2.97%. Take `CC(=O)c1cc2c(cc1N/C(=N/S(=O)(=O)c1ccc(F)cc1)c1ccccc1)OCO2`: the “activity change, negative = cytotoxicity” value is inactive: -14.3%. For `O=C(NC1CCCCC1)c1ccc2c(c1)N(Cc1cccc(Cl)c1)C(=O)c1ccccc1S2=O` (stereo not given) the value was inactive: -26.7%; for `CCc1ccc(NC(=O)c2sc3nc(C)cc(C)c3c2NC(=O)c2ccccc2OC)cc1`, inactive: 25.7%; for `CCN(Cc1ccccc1)C(=O)CCS(=O)(=O)c1ccc2c(c1)CCN2C(C)=O`, inactive: -0.0878%. For `COc1cc(OC)c(NC(=O)CSc2cc(=O)n(C)c3ccc(Cl)cc23)cc1Cl` the value was inactive: 19.8%; for `CCc1c(CN2CCN(c3cccc(C)c3)C(C)C2)csc1C` (stereo not given), inactive: 11.8%. For `O=C(Cn1ncc2c3ccccc3n(Cc3cccc(Cl)c3)c2c1=O)N1CCCCCC1`, the “activity change, negative = cytotoxicity” value is inactive: -25.5%. In the case of `CCOc1ccc(CCNC(=O)Cn2c(C)c3cnn(-c4ccccc4)c(=O)c3c2C)cc1`, the “activity change, negative = cytotoxicity” value was inactive: 0.18%. For `COc1ccccc1N1CCN(S(=O)(=O)CCNC(=O)C(c2ccccc2)c2ccccc2)CC1` the value was inactive: -6.51%; for `CCc1ccc(NC(=O)Cn2c(=O)n(CCc3ccccc3)c(=O)c3sc4ccccc4c32)cc1`, inactive: -1.89%; for `CC(=O)c1cccc(N2C(=O)CN(S(C)(=O)=O)CC2(C)C(=O)NC2CCCC2)c1` (stereo not given), inactive: -6.54%. For the compound `O=S(=O)(c1ccc2nc(Nc3ccc(F)cc3)ccc2c1)N1CCCC1`, the “activity change, negative = cytotoxicity” value is inactive: -0.543%. Regarding `Cc1ccc(C)c(CNC(=O)CN2C(=O)CSc3ccc(S(=O)(=O)N(C)C)cc32)c1`, the “activity change, negative = cytotoxicity” value was inactive: -16.7%. The same measure for `Cc1cccc(-n2nnc(-c3nc(-c4cccs4)no3)c2N)c1`: inactive: 7.79%; for `CCOC(=O)c1[nH]c(C)c(CCC(=O)Nc2cc(Cl)c(OC)cc2OC)c1C`: inactive: -13.7%.

Take `Cc1cc(C)c(NC(=O)Cn2c(=O)n(CC(=O)NCCc3ccccc3)c(=O)c3ccccc32)c(C)c1`: the “activity change, negative = cytotoxicity” value was inactive: 1.6%. The same measure for `O=C(CSc1nc2ccccc2n1Cc1cccc(F)c1)N1CCN(c2ccc(F)cc2)CC1`: inactive: 5.71%.

As for `O=C(NC1CCCCCC1)c1ccc(CS(=O)c2cccc(Cl)c2)o1` (stereo not given), the “activity change, negative = cytotoxicity” value is inactive: 15.3%. As to `O=C(NCc1ccccc1Cl)c1ccc2c(c1)N(Cc1ccccc1)CCS2`, the “activity change, negative = cytotoxicity” value was inactive: -11.4%.

With `CCC(C)NC(=O)c1cn(CC)c2ccc(S(=O)(=O)N3CCc4ccccc4C3)cc2c1=O` (stereo not given), the “activity change, negative = cytotoxicity” value was inactive: -20.1%. For `Cc1ccc(CCNC(=O)c2ccc3c(c2)N(Cc2ccc(F)cc2)CCS3)cc1` the value was inactive: -21.5%; for `COc1ccc(CNC(=O)c2ccc(CS(=O)(=O)c3ccc(Br)cc3)o2)cc1`, inactive: -2.11%; for `CCOc1ccc(OCC)c(NC(=O)c2cc(-c3cccs3)nc3ccccc23)c1`, inactive: -1.98%. The same measure for `CCc1cccc(C)c1NC(=O)Cn1ncc2c3ccccc3n(Cc3ccccc3)c2c1=O`: inactive: 20.1%; for `COc1ccc(-c2cn3nc(SCC(=O)Nc4cc(C)cc(C)c4)ccc3n2)cc1`: inactive: 2.09%. Take `Cc1ccc(Cl)cc1Nc1nn2c(=O)c3ccc(C(=O)NC4CCCCC4)cc3nc2s1`: the “activity change, negative = cytotoxicity” value was inactive: -15.3%. The same measure for `COc1ccc(OC)c(NC(=O)CS(=O)(=O)Cc2nc(-c3ccc(C)cc3)oc2C)c1`: inactive: 8.19%; for `CCCSc1ncnc2c1c(-c1ccccc1)cn2-c1ccccc1OC`: inactive: 1.34%. Consider `CCOc1ccc2c(c1)c(=O)c(S(=O)(=O)c1ccc(CC)cc1)cn2Cc1cccc(Cl)c1`, for which the “activity change, negative = cytotoxicity” value is inactive: -14.7%. The same measure for `O=C1CCSc2ccc(S(=O)(=O)Nc3cccc(C(F)(F)F)c3)cc2N1`: inactive: 5.11%; for `O=c1c(N2CCN(c3cccc(Cl)c3)CC2)csc2ccc(Cl)cc12`: inactive: 19.9%; for `O=c1c2sccc2n(Cc2cc(=O)n3cc(Cl)ccc3n2)c(=O)n1-c1ccccc1`: inactive: -0.251%.

Turning to `Cc1ccc(CNC(=O)CCCc2nnc3n(CC(C)C)c(=O)c4sccc4n23)cc1`, the “activity change, negative = cytotoxicity” value was inactive: 11.9%. The same measure for `CCOC(=O)c1ccccc1NC(=O)c1nn(-c2ccc(OC)c(Cl)c2)c(=O)c2c1c1ccccc1n2C`: inactive: 2.54%. For `Cc1sc2ncn(CC(=O)N3CCN(c4ccccc4)CC3)c(=O)c2c1S(=O)(=O)N1CCC(C)CC1`, the “activity change, negative = cytotoxicity” value is inactive: -4.43%. The same measure for `COCCCNC(=O)C1CCN(c2nc3ccc(Cl)cc3[nH]2)CC1`: inactive: 4.42%. For `CC1=C(c2ccc(C(C)C)cc2)S(=O)(=O)NC1=NCc1ccc(Cl)cc1` the value was inactive: 12.2%.
